The campaign covered roughly 94,000 compounds. About 6,200 (6.6%) were called active. Inconclusive means that the source gave no clear call. Such entries were picked first, then a sample of the others. The call rests on the fitted dose curve; in most records, active means well fitted inhibition curve with a large enough effect; inconclusive means small, poorly fitted or top-dose-only effect; inactive means flat fitted curve, though single readings scatter. A potency beside an inconclusive call is a rough fit, not a confirmed value.
Experiment: Cytotoxic Profiling in HEK 293 Cell Line of Diverse Libraries Using Quantitative High-Throughput Screening; further: nearly all actives have a fitted effect of over 60% in size
Details: HEK 293 viability, ATP luminescence (CellTiter-Glo), 48-72 h; activity change, negative = cytotoxicity: at 115 µM (top of the series) unless noted; series mostly up to 115 µM
In short: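 Read-out: CellTiter-Glo ATP luminescence. Cells: HEK 293, 250 cells/well. Exposure: 48 or 72 hr, 37 degree Celsius.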
On the % scale 0 is the no-effect control and ±100 the full control effect; potency means the concentration at half of the fitted maximal effect; tags describe the fitted curve by direction and shape.

SMILES | Potency | activity change, negative = cytotoxicity | outcome
CC(C)Cc1cc(C(=O)N2CCC(n3cc(-c4ccccn4)nn3)CC2)on1 | inconclusive: 56.2 µM [inhibitor, partial curve, poor fit] |  | 
O=C(Nc1ccncn1)[C@@H]1C[C@@H](c2cccc(C(F)(F)F)c2)N(CC2CCOCC2)C1 | active: 79.4 µM |  | 
Clc1cnccc1CN1CCNc2cnc(-c3ccccc3)cc2C1 | inconclusive: 56.2 µM [inhibitor, full curve, poor fit] |  | 
CCN1C(=O)C2(CCN(S(=O)(=O)c3cc(F)ccc3C)CC2)c2ccccc21 |  | inactive: -32.6% | 
Cc1ccc(OCCC2CCN(C(=O)c3ccccc3F)C2)cc1 (stereo not given) | inconclusive: 56.2 µM [inhibitor, partial curve, poor fit] |  | 
CC(=O)N1CCN(c2ccc(C=O)cc2)C(=O)C1 |  | inactive: 4.91% [at 172 µM] | 
Cn1ncc(N2CCCC(CC(=O)Nc3ccc(Cl)cc3)C2)cc1=O (stereo not given) |  | inactive: -34.8% | 
Cc1ccc(C(=O)N2CCC(N3C(=O)C4(CCCC4)C3c3ccccc3)CC2)s1 (stereo not given) | inconclusive: 50.1 µM [inhibitor, partial curve, poor fit] |  | 
O=C(Nc1ccccc1Cl)C1CCCN(Cc2cccc(-c3ccc(F)cc3F)c2)C1 (stereo not given) | active: 31.6 µM |  | 
S=C(NC1CCCCC1)N[C@H]1CO[C@H]2[C@@H]1OC[C@@H]2n1cc(-c2ccccn2)nn1 | active: 89.1 µM |  | 
O=C(NCc1nnc2n1CCC2)c1ccc2nc(-c3ccc(F)cc3)cn2c1 |  |  | inactive
COc1ccc(OC)c(CN2CC[C@@H]3OCC(=O)N(C(C)C)[C@H]3CC2)c1 | inconclusive: 100 µM [inhibitor, partial curve] |  | 
NCCCC(=O)N1CCC2(CC1)CN(C(=O)c1ccc(Cl)cc1)CCO2 |  | inactive: 3.35% | 
COc1ccc(-c2ccnc3nc(C4CCC4)nn23)cc1OC | inconclusive: 79.4 µM [inhibitor, partial curve, poor fit] |  | 
O=C(c1ccc2nccn2c1)N1CCCC1 |  |  | inactive [at 230 µM]
Cc1ccc2c(C(=O)NCc3ccc(F)c(Cl)c3)cc(NC(=O)C(C)C)cc2n1 | inconclusive: 39.8 µM [inhibitor, full curve] |  | 
CN1CCCCCCN(S(=O)(=O)N(C)C)CCC1=O |  |  | inactive
Cc1ccc(NC(=O)c2cc(-c3ccc[nH]3)n[nH]2)cc1F | inconclusive: 79.4 µM [inhibitor, partial curve, poor fit] |  | 
CC(=O)c1cc(C(=O)NCc2cccnc2N(C)Cc2ccccc2)cs1 | inconclusive: 89.1 µM [inhibitor, single point] |  | 
Cc1nc2c(c(-c3ccc(O)cc3)n1)CN(Cc1ccc(C(F)(F)F)cc1)CC2 | inconclusive: 28.2 µM [inhibitor, full curve] |  | 
CCN1C(=O)Cc2cc(C(=O)NCc3ccc(F)cc3Cl)ccc21 | inconclusive: 50.1 µM [inhibitor, partial curve, poor fit] |  | 
Cc1noc(C)c1[S+](=O)([O-])N1CCN(c2ccc3nnc(C)n3n2)CC1 |  | inactive: -9.78% | 
COc1ccc(OC)c(NC(=O)COc2ccc(-c3nnc4n3CCCC4)cc2)c1 |  | inactive: 3.5% | 

SMILES | Potency | activity change, negative = cytotoxicity | outcome
O=C(NCc1cccc(F)c1)c1nc2c(o1)CCN(Cc1cc(F)ccc1F)CC2 | inconclusive: 70.8 µM [inhibitor, partial curve, poor fit] |  | 
NCc1ccc(-c2cccc(O)c2)cc1 | active: 89.1 µM |  | 
O=C(c1ccccc1F)N1CCC(n2c(=O)[nH]c3ccccc32)CC1 | inconclusive: 112 µM [inhibitor, single point] |  | 
O=C(c1ccc2c(c1)[nH]c(=O)n2C1CCC(O)CC1)N1CCc2ccccc2C1 (stereo not given) |  | inactive: -26% | 
COc1ccc(-c2cc3c(ccn3C(C)C)c(C(=O)NCc3c(C)cc(C)[nH]c3=O)n2)cc1 | inconclusive: 39.8 µM [inhibitor, full curve, poor fit] |  | 
CC1=NOC2(CCN(Cc3cccc4ccccc34)C2)C1 (stereo not given) | inconclusive: 5.62 µM [inhibitor, single point] |  | 
CCN(CC)CC(C)NC (stereo not given) |  |  | inactive [at 345 µM]
CCn1cc(-c2cc(C(=O)N3CCCCCC3)c3cccc(C)c3n2)cn1 | inconclusive: 89.1 µM [inhibitor, single point] |  | 
COc1ccc(-c2cc3c(=O)n(CCNC(=O)c4ccc(OC)cc4OC)ccn3n2)cc1 | inconclusive: 50.1 µM [inhibitor, partial curve, poor fit] |  | 
CN1CCC(NC[C@H]2O[C@@H](CO)[C@@H](O)[C@H]2N2CCOCC2)CC1 |  |  | inactive
O=C(CN1CC2CC(C1)[C@H]1CCCC(=O)N1C2)NCc1cccs1 (stereo not given in full) |  | inactive: 6.29% | 
O=C(C1CC1)N1CCCC(c2nn(-c3ccc(Cl)cc3)c(=O)[nH]2)C1 (stereo not given) |  | inactive: -8.17% | 
COc1ccc(C(=O)N2CC(N3C(=O)c4c(c(C)nn4-c4ccccc4)C3C3CC3)C2)cc1 (stereo not given) | inconclusive: 31.6 µM [inhibitor, full curve] |  | 
N#Cc1ccc(CN2CCC3(CC2)CN(c2ccncn2)CC3CO)cc1 (stereo not given) | inconclusive: 35.5 µM [inhibitor, full curve] |  | 
CCN1c2cc(C(=O)NCc3cccc(OC)c3OC)ccc2C(=O)N2CCCCCC21 (stereo not given) | inconclusive: 44.7 µM [inhibitor, partial curve, poor fit] |  | 
CS(=O)(=O)N1CCN2C(=O)N(Cc3cccnc3)C[C@H]2C1 |  | inactive: -1.09% [at 172 µM] | 
O=C(NCc1cccc(Cl)c1)c1cn2cc(-c3ccc(C(F)(F)F)cc3)sc2n1 | active: 44.7 µM |  | 
Cc1csc(Nc2ccc3c(n2)CN(CCOc2ccccc2)C(=O)CO3)n1 | inconclusive: 44.7 µM [inhibitor, partial curve, poor fit] |  | 
CCOC(=O)[C@@H]1CN(C(=O)c2cc3ccccc3s2)[C@H]2c3cccc(F)c3O[C@@H]12 | inconclusive: 44.7 µM [inhibitor, partial curve, poor fit] |  | 
C#CCNC(=O)c1cc(-c2ccc(Cl)cc2)nc2c1cnn2C | active: 89.1 µM |  | 
CCN(CC)C(=O)[C@@H]1[C@H](c2cc(OC)c(OC)c(OC)c2)c2cc3c(cc2[C@H](O)[C@H]1CO)OCO3 | inconclusive: 28.2 µM [inhibitor, full curve] |  | 
COc1ccc(NC(=O)CC2CCCCN(Cc3ccccc3)C2=O)c(C)c1 (stereo not given) | inconclusive: 89.1 µM [inhibitor, partial curve, poor fit] |  | 
